Measured values as given in publication PMC12820563.
Some of the results follow. The list includes weakly bound sequences.

target: T1, MBP-FoxP3dN (UniProt Q99JB6); assay: PD-seq (MBP pull-down with sequencing); settings: 20 mM Tris-HCl pH 7.5, 100 mM NaCl, 1.5 mM MgCl2, 0.4 uM protein, 0.1 uM dsDNA library, 30 min, room temperature, amylose pull-down; high values mean tight binding; double strand, one strand shown
T1 sequence: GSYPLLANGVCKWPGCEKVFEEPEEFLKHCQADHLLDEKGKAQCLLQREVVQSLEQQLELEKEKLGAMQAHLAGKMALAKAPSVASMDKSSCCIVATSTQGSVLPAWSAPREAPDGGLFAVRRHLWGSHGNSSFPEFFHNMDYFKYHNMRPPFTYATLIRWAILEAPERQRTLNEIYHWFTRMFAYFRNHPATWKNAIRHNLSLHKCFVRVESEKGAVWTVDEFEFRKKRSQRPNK

| Sequence | binding signal (RPM ratio (pull-down/input)) |
| --- | --- |
| GATGATTGTTCTCCCAGCTGATGAATTCCACTTCTCGAGTAAACAAATTTTCCTAATCTTTCTGTTCAAGCGCCATCTAC | 0.439 |
| GATGATTGTTCTCCCAGCTGATGAATTTATTCCATCGAGTAAACAAATTTTCCTAATCTTTCTGTTCAAGCGCCATCTAC | 0.53 |
| GATGATTGTTCTCCCAGCTGATGAATTCTTAAGCTCGAGTAAACAAATTTTCCTAATCTTTCTGTTCAAGCGCCATCTAC | 0.218 |
| GATGATTGTTCTCCCAGCTGATGAATTGATAATATCGAGTAAACAAATTTTCCTAATCTTTCTGTTCAAGCGCCATCTAC | 0.753 |
| GATGATTGTTCTCCCAGCTGATGAATTTACCCTATCGAGTAAACAAATTTTCCTAATCTTTCTGTTCAAGCGCCATCTAC | 0.52 |
| GATGATTGTTCTCCCAGCTGATGAATTATTTGAATCGAGTAAACAAATTTTCCTAATCTTTCTGTTCAAGCGCCATCTAC | 0.377 |
| GATGATTGTTCTCCCAGCTGATGAATTACGGTGATCGAGTAAACAAATTTTCCTAATCTTTCTGTTCAAGCGCCATCTAC | 0.601 |
| GATGATTGTTCTCCCAGCTGATGAATTTTTGAGCTCGAGTAAACAAATTTTCCTAATCTTTCTGTTCAAGCGCCATCTAC | 0.209 |
| GATGATTGTTCTCCCAGCTGATGAATTGCCTAAGTCGAGTAAACAAATTTTCCTAATCTTTCTGTTCAAGCGCCATCTAC | 0.387 |
| GATGATTGTTCTCCCAGCTGATGAATTGAGGCCATCGAGTAAACAAATTTTCCTAATCTTTCTGTTCAAGCGCCATCTAC | 1.6 |
| GATGATTGTTCTCCCAGCTGATGAATTGACTGATTCGAGTAAACAAATTTTCCTAATCTTTCTGTTCAAGCGCCATCTAC | 0.374 |
| GATGATTGTTCTCCCAGCTGATGAATTGCGTTCTTCGAGTAAACAAATTTTCCTAATCTTTCTGTTCAAGCGCCATCTAC | 1.3 |
| GATGATTGTTCTCCCAGCTGATGAATTCAATGCGTCGAGTAAACAAATTTTCCTAATCTTTCTGTTCAAGCGCCATCTAC | 1.1 |
| GATGATTGTTCTCCCAGCTGATGAATTCTGCACATCGAGTAAACAAATTTTCCTAATCTTTCTGTTCAAGCGCCATCTAC | 1.2 |
| GATGATTGTTCTCCCAGCTGATGAATTAAGCCTTTCGAGTAAACAAATTTTCCTAATCTTTCTGTTCAAGCGCCATCTAC | 4.34 |
| GATGATTGTTCTCCCAGCTGATGAATTGGGTCTATCGAGTAAACAAATTTTCCTAATCTTTCTGTTCAAGCGCCATCTAC | 0.456 |
| GATGATTGTTCTCCCAGCTGATGAATTAGAACCTTCGAGTAAACAAATTTTCCTAATCTTTCTGTTCAAGCGCCATCTAC | 0.247 |
| GATGATTGTTCTCCCAGCTGATGAATTGTGGGACTCGAGTAAACAAATTTTCCTAATCTTTCTGTTCAAGCGCCATCTAC | 0.586 |
| GATGATTGTTCTCCCAGCTGATGAATTTACAATGTCGAGTAAACAAATTTTCCTAATCTTTCTGTTCAAGCGCCATCTAC | 0.563 |
| GATGATTGTTCTCCCAGCTGATGAATTCTAACGGTCGAGTAAACAAATTTTCCTAATCTTTCTGTTCAAGCGCCATCTAC | 0.288 |
| GATGATTGTTCTCCCAGCTGATGAATTTATACGCTCGAGTAAACAAATTTTCCTAATCTTTCTGTTCAAGCGCCATCTAC | 0.739 |

| Sequence | binding signal (RPM ratio (pull-down/input)) |
| --- | --- |
| GATGATTGTTCTCCCAGCTGATGAATTCCGGAGTTCGAGTAAACAAATTTTCCTAATCTTTCTGTTCAAGCGCCATCTAC | 0.329 |
| GATGATTGTTCTCCCAGCTGATGAATTGTAAAAATCGAGTAAACAAATTTTCCTAATCTTTCTGTTCAAGCGCCATCTAC | 0.222 |
| GATGATTGTTCTCCCAGCTGATGAATTGGTATCTTCGAGTAAACAAATTTTCCTAATCTTTCTGTTCAAGCGCCATCTAC | 1.23 |
| GATGATTGTTCTCCCAGCTGATGAATTTTCCATTTCGAGTAAACAAATTTTCCTAATCTTTCTGTTCAAGCGCCATCTAC | 0.295 |
| GATGATTGTTCTCCCAGCTGATGAATTGCCGTCCTCGAGTAAACAAATTTTCCTAATCTTTCTGTTCAAGCGCCATCTAC | 0.621 |
| GATGATTGTTCTCCCAGCTGATGAATTCGTCAGCTCGAGTAAACAAATTTTCCTAATCTTTCTGTTCAAGCGCCATCTAC | 0.507 |
| GATGATTGTTCTCCCAGCTGATGAATTCAGCGACTCGAGTAAACAAATTTTCCTAATCTTTCTGTTCAAGCGCCATCTAC | 1.51 |
| GATGATTGTTCTCCCAGCTGATGAATTATGTCGGTCGAGTAAACAAATTTTCCTAATCTTTCTGTTCAAGCGCCATCTAC | 0.673 |
| GATGATTGTTCTCCCAGCTGATGAATTCTGTGTGTCGAGTAAACAAATTTTCCTAATCTTTCTGTTCAAGCGCCATCTAC | 3.92 |
| GATGATTGTTCTCCCAGCTGATGAATTGTTCTGGTCGAGTAAACAAATTTTCCTAATCTTTCTGTTCAAGCGCCATCTAC | 0.274 |
| GATGATTGTTCTCCCAGCTGATGAATTTCGGCCATCGAGTAAACAAATTTTCCTAATCTTTCTGTTCAAGCGCCATCTAC | 1.2 |
| GATGATTGTTCTCCCAGCTGATGAATTGTATACATCGAGTAAACAAATTTTCCTAATCTTTCTGTTCAAGCGCCATCTAC | 5.87 |
| GATGATTGTTCTCCCAGCTGATGAATTGCACCGGTCGAGTAAACAAATTTTCCTAATCTTTCTGTTCAAGCGCCATCTAC | 0.58 |
| GATGATTGTTCTCCCAGCTGATGAATTCCATTTGTCGAGTAAACAAATTTTCCTAATCTTTCTGTTCAAGCGCCATCTAC | 1.53 |
| GATGATTGTTCTCCCAGCTGATGAATTGCAAGGATCGAGTAAACAAATTTTCCTAATCTTTCTGTTCAAGCGCCATCTAC | 0.518 |
| GATGATTGTTCTCCCAGCTGATGAATTCAGGGTATCGAGTAAACAAATTTTCCTAATCTTTCTGTTCAAGCGCCATCTAC | 0.611 |
| GATGATTGTTCTCCCAGCTGATGAATTCGGACTATCGAGTAAACAAATTTTCCTAATCTTTCTGTTCAAGCGCCATCTAC | 0.499 |
| GATGATTGTTCTCCCAGCTGATGAATTATTCGTCTCGAGTAAACAAATTTTCCTAATCTTTCTGTTCAAGCGCCATCTAC | 0.385 |
| GATGATTGTTCTCCCAGCTGATGAATTTCATGCGTCGAGTAAACAAATTTTCCTAATCTTTCTGTTCAAGCGCCATCTAC | 0.678 |
| GATGATTGTTCTCCCAGCTGATGAATTCTCAGTCTCGAGTAAACAAATTTTCCTAATCTTTCTGTTCAAGCGCCATCTAC | 0.273 |
| GATGATTGTTCTCCCAGCTGATGAATTTATTAACTCGAGTAAACAAATTTTCCTAATCTTTCTGTTCAAGCGCCATCTAC | 1.28 |

| Sequence | binding signal (RPM ratio (pull-down/input)) |
| --- | --- |
| GATGATTGTTCTCCCAGCTGATGAATTTATCCGGTCGAGTAAACAAATTTTCCTAATCTTTCTGTTCAAGCGCCATCTAC | 0.325 |
| GATGATTGTTCTCCCAGCTGATGAATTCCAATTTTCGAGTAAACAAATTTTCCTAATCTTTCTGTTCAAGCGCCATCTAC | 0.344 |
| GATGATTGTTCTCCCAGCTGATGAATTCCTGATTTCGAGTAAACAAATTTTCCTAATCTTTCTGTTCAAGCGCCATCTAC | 0.402 |
| GATGATTGTTCTCCCAGCTGATGAATTATACGTTTCGAGTAAACAAATTTTCCTAATCTTTCTGTTCAAGCGCCATCTAC | 0.671 |
| GATGATTGTTCTCCCAGCTGATGAATTGGAGCCATCGAGTAAACAAATTTTCCTAATCTTTCTGTTCAAGCGCCATCTAC | 1.01 |
| GATGATTGTTCTCCCAGCTGATGAATTGCCTGGGTCGAGTAAACAAATTTTCCTAATCTTTCTGTTCAAGCGCCATCTAC | 0.902 |
| GATGATTGTTCTCCCAGCTGATGAATTTTGTCGATCGAGTAAACAAATTTTCCTAATCTTTCTGTTCAAGCGCCATCTAC | 1.18 |
| GATGATTGTTCTCCCAGCTGATGAATTATAGTCTTCGAGTAAACAAATTTTCCTAATCTTTCTGTTCAAGCGCCATCTAC | 0.529 |
| GATGATTGTTCTCCCAGCTGATGAATTGGGCCACTCGAGTAAACAAATTTTCCTAATCTTTCTGTTCAAGCGCCATCTAC | 4.45 |
| GATGATTGTTCTCCCAGCTGATGAATTGGACAACTCGAGTAAACAAATTTTCCTAATCTTTCTGTTCAAGCGCCATCTAC | 0.378 |
| GATGATTGTTCTCCCAGCTGATGAATTCCCAGGGTCGAGTAAACAAATTTTCCTAATCTTTCTGTTCAAGCGCCATCTAC | 0.173 |
| GATGATTGTTCTCCCAGCTGATGAATTGGATGGTTCGAGTAAACAAATTTTCCTAATCTTTCTGTTCAAGCGCCATCTAC | 0.894 |
| GATGATTGTTCTCCCAGCTGATGAATTGGACAAGTCGAGTAAACAAATTTTCCTAATCTTTCTGTTCAAGCGCCATCTAC | 0.191 |
| GATGATTGTTCTCCCAGCTGATGAATTCGACTCTTCGAGTAAACAAATTTTCCTAATCTTTCTGTTCAAGCGCCATCTAC | 0.539 |
| GATGATTGTTCTCCCAGCTGATGAATTTGTATGGTCGAGTAAACAAATTTTCCTAATCTTTCTGTTCAAGCGCCATCTAC | 6.04 |
| GATGATTGTTCTCCCAGCTGATGAATTCTCTGGCTCGAGTAAACAAATTTTCCTAATCTTTCTGTTCAAGCGCCATCTAC | 0.173 |
| GATGATTGTTCTCCCAGCTGATGAATTGCAGTCGTCGAGTAAACAAATTTTCCTAATCTTTCTGTTCAAGCGCCATCTAC | 0.901 |
| GATGATTGTTCTCCCAGCTGATGAATTACTTGTATCGAGTAAACAAATTTTCCTAATCTTTCTGTTCAAGCGCCATCTAC | 0.816 |
| GATGATTGTTCTCCCAGCTGATGAATTGGCGGCCTCGAGTAAACAAATTTTCCTAATCTTTCTGTTCAAGCGCCATCTAC | 0.449 |
| GATGATTGTTCTCCCAGCTGATGAATTTTTAGCGTCGAGTAAACAAATTTTCCTAATCTTTCTGTTCAAGCGCCATCTAC | 0.448 |
| GATGATTGTTCTCCCAGCTGATGAATTTTTTTAGTCGAGTAAACAAATTTTCCTAATCTTTCTGTTCAAGCGCCATCTAC | 0.273 |
